Assay results: US11685745B2, “Substituted benzoxazole and benzofuran compounds as PDE7 inhibitors” (Dart NeuroScience, LLC, priority 2017, dated 2023)
pIC50: −log10 of the molar value.

These molecules were tested against N-terminal truncated recombinant human PDE7B enzyme (Homo sapiens (Human), UniProt Q9NP56) (assay: biochemical).
Molecule `O=C1Nc2c(Cl)cc3cc(C(=O)NCC4CCCO4)oc3c2C2(CCCCC2)N1` (centres unmarked) [Example 269, 5′-Chloro-7′-oxo-N-(oxolan-2-ylmethyl)-7′,8′-dihydro-6′H-spiro[cyclohexane-1,9′-furo[2,3-f]quinazoline]-2′-carboxamide] has a pIC50 of 7.00 to 8.00. For `CCN1CCN(Cc2nc3cc(Cl)c4c(c3o2)C2(CCCCC2)NC(=O)N4)CC1=O` [Example 58, 5-Chloro-2-[(4-ethyl-3-oxopiperazin-1-yl)methyl]-7,8-dihydro-6H-spiro[[1,3]oxazolo[5,4-f]quinazoline-9,1′-cyclohexane]-7-one], the pIC50 was 7.00 to 8.00. Work on `O=C1Nc2c(Cl)cc3cc(C(=O)NCc4cccc(F)n4)oc3c2C2(CCCCC2)N1` [Example 373, 5′-Chloro-N-[(6-fluoropyridin-2-yl)methyl]-7′-oxo-7′,8′-dihydro-6′H-spiro[cyclohexane-1,9′-furo[2,3-f]quinazoline]-2′-carboxamide] yielded a pIC50 of 7.00 to 8.00. In the case of `CCn1cnnc1CN(C)C(=O)c1cc2cc(Cl)c3c(c2o1)C1(CCCCC1)NC(=O)N3` [Example 338, 5′-Chloro-N-[(4-ethyl-4H-1,2,4-triazol-3-yl)methyl]-N-methyl-7′-oxo-7′,8′-dihydro-6′H-spiro[cyclohexane-1,9′-furo[2,3-f]quinazoline]-2′-carboxamide], the pIC50 was 6.00 to 7.00. Molecule `CCN(Cc1cc2cc(Cl)c3c(c2o1)C1(CCCCC1)NC(=O)N3)C1CCOC(C)(C)C1` (centres unmarked) [Example 537, 5′-Chloro-2′-{[(2,2-dimethyloxan-4-yl)(ethyl)amino]methyl}-7′,8′-dihydro-6′H-spiro[cyclohexane-1,9′-furo[2,3-f]quinazoline]-7′-one] has a pIC50 of 6.00 to 7.00. With `COc1ccccc1CN(C)C(=O)c1cc2cc(Cl)c3c(c2o1)C1(CCCCC1)NC(=O)N3` [Example 282, 5′-Chloro-N-[(2-methoxyphenyl)methyl]-N-methyl-7′-oxo-7′,8′-dihydro-6′H-spiro[cyclohexane-1,9′-furo[2,3-f]quinazoline]-2′-carboxamide] the pIC50 was 7.00 to 8.00. For `CC(=O)C1CCN(Cc2nc3cc(Cl)c4c(c3o2)C2(CCCCC2)NC(=O)N4)CC1` [Example 65, 2-[(4-Acetylpiperidin-1-yl)methyl]-5-chloro-7,8-dihydro-6H-spiro[[1,3]oxazolo[5,4-f]quinazoline-9,1′-cyclohexane]-7-one], the pIC50 was 7.00 to 8.00. With `O=C1Nc2c(Cl)cc3cc(C(=O)NC4CCC4)oc3c2C2(CCCCC2)N1` [Example 389, 5′-Chloro-N-cyclobutyl-7′-oxo-7′,8′-dihydro-6′H-spiro[cyclohexane-1,9′-furo[2,3-f]quinazoline]-2′-carboxamide] the pIC50 was 6.00 to 7.00. Work on `O=C1Nc2c(Cl)cc3nc(CN4CCC(CO)C4)oc3c2C2(CCCCC2)N1` (centres unmarked) [Example 116, 5-Chloro-2-{[3-(hydroxymethyl)pyrrolidin-1-yl]methyl}-7,8-dihydro-6H-spiro[[1,3]oxazolo[5,4-f]quinazoline-9,1′-cyclohexane]-7-one] yielded a pIC50 of 7.00 to 8.00. In the case of `CN(CCO)Cc1nc2cc(Cl)c3c(c2o1)C1(CCCCC1)NC(=O)N3` [Example 44, 5-Chloro-2-{[(2-hydroxyethyl)(methyl)amino]methyl}-7,8-dihydro-6H-spiro[[1,3]oxazolo[5,4-f]quinazoline-9,1′-cyclohexane]-7-one], the pIC50 was 7.00 to 8.00. Molecule `O=C1Nc2c(Cl)cc3nc(CNC4CCOCC4F)oc3c2C2(CCCCC2)N1` (centres unmarked) [Example 163, 5-Chloro-2-{[(3-fluorooxan-4-yl)amino]methyl}-7,8-dihydro-6H-spiro[[1,3]oxazolo[5,4-f]quinazoline-9,1′-cyclohexane]-7-one] has a pIC50 of 7.00 to 8.00. For `CCCN(CC)C(=O)c1cc2cc(Cl)c3c(c2o1)C1(CCCCC1)NC(=O)N3` [Example 403, 5′-Chloro-N-ethyl-7′-oxo-N-propyl-7′,8′-dihydro-6′H-spiro[cyclohexane-1,9′-furo[2,3-f]quinazoline]-2′-carboxamide], the pIC50 was 7.00 to 8.00. With `COCCNCc1cc2cc(Cl)c3c(c2o1)C1(CCCCC1)NC(=O)N3` [Example 582, 5′-Chloro-2′-{[(2-methoxyethyl)amino]methyl}-7′,8′-dihydro-6′H-spiro[cyclohexane-1,9′-furo[2,3-f]quinazoline]-7′-one] the pIC50 was 6.00 to 7.00. For `O=C1Nc2c(Cl)cc3nc(C(=O)N4CCN(CCF)CC4)oc3c2C2(CCCCC2)N1` [Example 213, 5-Chloro-2-[4-(2-fluoroethyl)piperazine-1-carbonyl]-7,8-dihydro-6H-spiro[[1,3]oxazolo[5,4-f]quinazoline-9,1′-cyclohexane]-7-one], the pIC50 was 7.00 to 8.00. For `O=C1Nc2c(Cl)cc3cc(C(=O)NCc4ccc(F)cc4)oc3c2C2(CCCCC2)N1` [Example 248, 5′-Chloro-N-[(4-fluorophenyl)methyl]-7′-oxo-7′,8′-dihydro-6′H-spiro[cyclohexane-1,9′-furo[2,3-f]quinazoline]-2′-carboxamide], the pIC50 was 6.00 to 7.00. With `CC1(NCc2nc3cc(Cl)c4c(c3o2)C2(CCCCC2)NC(=O)N4)CCOC1` (centres unmarked) [Example 154, 5-Chloro-2-{[(3-methyloxolan-3-yl)amino]methyl}-7,8-dihydro-6H-spiro[[1,3]oxazolo[5,4-f]quinazoline-9,1′-cyclohexane]-7-one] the pIC50 was 7.00 to 8.00. `CCN(CCN(C)C)Cc1cc2cc(Cl)c3c(c2o1)C1(CCCCC1)NC(=O)N3` [Example 547, 5′-Chloro-2′-({[2-(dimethylamino)ethyl](ethyl)amino}methyl)-7′,8′-dihydro-6′H-spiro[cyclohexane-1,9′-furo[2,3-f]quinazoline]-7′-one] gave a pIC50 of 6.00 to 7.00. Molecule `O=C1Nc2c(Cl)cc3cc(C(=O)NCCc4ccc5c(c4)CCO5)oc3c2C2(CCCCC2)N1` [Example 380, 5′-Chloro-N-[2-(2,3-dihydro-1-benzofuran-5-yl)ethyl]-7′-oxo-7′,8′-dihydro-6′H-spiro[cyclohexane-1,9′-furo[2,3-f]quinazoline]-2′-carboxamide] has a pIC50 of 6.00 to 7.00. Work on `CC1(C)C2CN(C(=O)c3cc4cc(Cl)c5c(c4o3)C3(CCCCC3)NC(=O)N5)CC21` (centres unmarked) [Example 375, 5′-Chloro-2′-{6,6-dimethyl-3-azabicyclo[3.1.0]hexane-3-carbonyl}-7′,8′-dihydro-6′H-spiro[cyclohexane-1,9′-furo[2,3-f]quinazoline]-7′-one] yielded a pIC50 of 6.00 to 7.00. `O=C1Nc2c(Cl)cc3cc(CN4CCn5ccnc5C4)oc3c2C2(CCCCC2)N1` [Example 491, 5′-Chloro-2′-{5H,6H,7H,8H-imidazo[1,2-a]pyrazin-7-ylmethyl}-7′,8′-dihydro-6′H-spiro[cyclohexane-1,9′-furo[2,3-f]quinazoline]-7′-one] was tested, and the pIC50 was 7.00 to 8.00. With `COc1ccccc1CNC(=O)c1cc2cc(Cl)c3c(c2o1)C1(CCCCC1)NC(=O)N3` [Example 330, 5′-Chloro-N-[(2-methoxyphenyl)methyl]-7′-oxo-7′,8′-dihydro-6′H-spiro[cyclohexane-1,9′-furo[2,3-f]quinazoline]-2′-carboxamide] the pIC50 was 6.00 to 7.00. `O=C1Nc2c(Cl)cc3nc(CNCc4cnco4)oc3c2C2(CCCCC2)N1` [Example 171, 5-Chloro-2-{[(1,3-oxazol-5-ylmethyl)amino]methyl}-7,8-dihydro-6H-spiro[[1,3]oxazolo[5,4-f]quinazoline-9,1′-cyclohexane]-7-one] gave a pIC50 of 7.00 to 8.00. With `O=C1Nc2c(Cl)cc3cc(CN4CCCCC4CO)oc3c2C2(CCCCC2)N1` (centres unmarked) [Example 561, 5′-Chloro-2′-{[2-(hydroxymethyl)piperidin-1-yl]methyl}-7′,8′-dihydro-6′H-spiro[cyclohexane-1,9′-furo[2,3-f]quinazoline]-7′-one] the pIC50 was 6.00 to 7.00.
